Reference: PubChem BioAssay AID1768 (National Center for Advancing Translational Sciences (NCATS), 2009)
Among all 270,000 compounds or so, about 620 (0.23%) were called active. The shares of active, inactive and inconclusive entries below differ from those in the screen. Calls follow the shape of the dose curve; as a rule, active = well fitted inhibition curve with a large enough effect in the polarisation, with a control signal flat (not every such curve was filed as active); inconclusive = small, poorly fitted or top-dose-only effect, or effect the other way, or a change in a side signal; inactive = no such curve, though single readings can be large or run the other way; the % refers to the polarisation. Potencies beside an inconclusive call are fits to weak or partial responses and may not hold up. A note “side channel” means that the fit belongs to a control or component signal, not to the main read-out.

target: Menin (Homo sapiens) (UniProt O00255); experiment: qHTS Assay for Inhibitors Targeting the Menin-MLL Interaction in MLL Related Leukemias: Competition With Texas Red Labeled MLL-derived Mutant Peptide; conditions: fluorescence polarization; series mostly up to 61.6 µM
Potency is read from the fitted curve at half-maximal effect; tags tell the direction and shape of the fitted curve or compound fluorescence and quenching.

UniProt O00255, sequence (O00255 whole entry, looked up): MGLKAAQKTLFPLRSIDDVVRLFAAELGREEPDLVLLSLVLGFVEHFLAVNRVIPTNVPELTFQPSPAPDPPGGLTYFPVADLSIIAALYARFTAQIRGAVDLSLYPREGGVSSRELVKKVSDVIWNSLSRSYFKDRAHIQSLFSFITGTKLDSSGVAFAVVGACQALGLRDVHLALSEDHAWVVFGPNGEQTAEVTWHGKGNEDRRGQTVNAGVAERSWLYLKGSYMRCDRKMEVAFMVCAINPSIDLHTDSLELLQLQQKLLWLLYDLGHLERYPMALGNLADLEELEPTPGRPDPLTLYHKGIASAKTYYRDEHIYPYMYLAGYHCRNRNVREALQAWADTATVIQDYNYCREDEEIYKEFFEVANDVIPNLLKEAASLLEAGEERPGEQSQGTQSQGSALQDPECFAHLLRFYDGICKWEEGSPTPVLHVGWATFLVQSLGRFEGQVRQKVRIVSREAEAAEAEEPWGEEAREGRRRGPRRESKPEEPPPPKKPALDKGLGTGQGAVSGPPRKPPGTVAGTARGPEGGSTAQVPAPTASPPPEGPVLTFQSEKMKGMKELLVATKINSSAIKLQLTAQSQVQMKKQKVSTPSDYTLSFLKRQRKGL

Potency, inactive:
CC[C@@]1(O)C[C@H](O[C@H]2C[C@@H](N(C)C)[C@@H](O[C@H]3C[C@@H](O)[C@@H](O[C@H]4CCC(=O)[C@@H](C)O4)[C@@H](C)O3)[C@@H](C)O2)c2c(cc3c(c2O)C(=O)c2c(O)cccc2C3=O)[C@H]1C(=O)OC
COc1ccccc1Oc1coc2c(CN3CCN(C)CC3)c(O)ccc2c1=O
Cc1cccc(N2CCN(CC(=O)NCc3ccc(Cl)cc3)CC2)c1C
O=C(CC1CC2CCC1C2)Nc1nc(-c2ccccn2)cs1 (stereo unspecified)
C[C@H](N)C(=O)NCC(=O)N[C@H]1CSSC[C@@H](C(=O)O)NC(=O)[C@H](CO)NC(=O)[C@H]([C@@H](C)O)NC(=O)[C@H](Cc2ccccc2)NC(=O)[C@H]([C@@H](C)O)NC(=O)[C@H](CCCCN)NC(=O)[C@H](Cc2c[nH]c3ccccc23)NC(=O)[C@H](Cc2ccccc2)NC(=O)[C@H](Cc2ccccc2)NC(=O)[C@H](CC(N)=O)NC(=O)[C@H](CCCCN)NC1=O
C=CC(C1=CC(=O)C(OC)=C(OC)C1=O)c1ccccc1 (stereo unspecified)
CCOc1cc2[nH]c(=O)n(CCCCCC(=O)NCc3ccco3)c(=O)c2cc1OCC
COc1ccc(N2CCN(CC(O)COC(c3ccccc3)c3ccccc3)CC2)cc1 (stereo unspecified)
CC(=O)c1ccc(Nc2ncnc3c2oc2ccccc23)cc1

Potency, inconclusive:
Nc1ccccc1SCC(=O)Nc1nc(-c2ccccc2)cs1 28.2 µM [quencher, side channel, single point]
CC1CCCC(C)N1/N=C/c1ccc([N+](=O)[O-])cc1 (stereo unspecified) 1.58 µM [quencher, side channel, full curve]
O=C(CSc1ncnc2c1oc1ccccc12)Nc1cccc(F)c1 17.8 µM [quencher, side channel, partial curve]
CC1(C)CC(=O)C2=C(C1)N(Cc1ccco1)C(=O)C2(NC(=O)c1ccc(Cl)cc1Cl)C(F)(F)F (stereo unspecified) 8.91 µM [fluorescent, side channel, full curve, poor fit]
CCCOc1ccc(CNC(=S)Nc2ccccc2)cc1Cl 10 µM [quencher, side channel, partial curve]
CCOC(=O)c1c(-c2ccc(C)cc2)csc1NC(=O)CCN1CC(C)OC(C)C1 (stereo unspecified) 20 µM [fluorescent, side channel, partial curve]
COc1ccc(C(=O)CC(=O)c2ccccc2O)cc1OC 39.8 µM [quencher, side channel, single point]
O=[N+]([O-])c1ccc(N=Nc2c(Cl)cc(O)cc2Cl)cc1 14.1 µM [quencher, side channel, partial curve]
CC1=NN(C(N)=S)C(=O)C1N=Nc1cccc2ccccc12 (stereo unspecified) 17.8 µM [quencher, side channel, partial curve]
CCOCCCNC(=O)c1oc2ccc(S(=O)(=O)N3CCOCC3)cc2c1C 39.8 µM [inhibitor, partial curve]
COc1cc(C(=O)Nc2ccc(NC(=O)c3cccc(Cl)c3)nc2)cc(OC)c1OC 8.91 µM [quencher, side channel, single point]
COc1cccc(CN(C)C(=O)[C@@H](NC(=O)c2ccc(C)cc2)C(C)C)c1 2.82 µM [inhibitor, full curve]
O=C(CN1C(=O)S/C(=C\c2cc(Cl)c(O)c(Cl)c2)C1=O)Nc1ccccc1 15.8 µM [quencher, side channel, partial curve]
Cc1sc2ncnc(N/N=C/c3ccccc3O)c2c1C 14.1 µM [quencher, side channel, partial curve]
C=CCN(CC=C)CC(=O)Nc1ccc(S(N)(=O)=O)cc1 28.2 µM [inhibitor, single point]
CC(C)Cn1c(N)c(C(=O)NCc2cccs2)c2nc3ccccc3nc21 11.2 µM [quencher, side channel, partial curve]
Cc1ccccc1C(=O)Nc1ccc(C(=O)N/N=C/c2ccc(F)cc2)cc1 39.8 µM [inhibitor, single point]
N=c1sccn1CC(=O)Nc1ccccc1-c1ccccc1 25.1 µM [inhibitor, single point]
COc1ccccc1P(=O)(Cc1ccccc1)c1ccccc1 (stereo unspecified) 11.2 µM [fluorescent, side channel, partial curve]
O=C(Nc1ccccc1F)c1cc(C(=O)Nc2ccccc2F)cc([N+](=O)[O-])c1 14.1 µM [quencher, side channel, single point]
Cc1ccc(C(=O)OCC(=O)Nc2ccc(N(C)C)cc2)cc1NC(=O)c1ccco1 39.8 µM [quencher, side channel, single point]
CCCOc1ccc(/C=N/Nc2cccc([N+](=O)[O-])c2)c(O)c1 8.91 µM [quencher, side channel, full curve]
CCCCSCCCNC(=O)CCCN1C(=O)c2ccccc2Sc2ncccc21 25.1 µM [fluorescent, side channel, partial curve]
Cc1csc(NC(=O)c2cc(-c3ccncc3)nc3ccccc23)n1 12.6 µM [quencher, side channel, partial curve]
Cc1ccc(C)c(-c2ccc(=O)n(Cc3c(F)cccc3Cl)n2)c1 12.6 µM [fluorescent, side channel, partial curve]
O=C(Oc1ccc(C(=S)N2CCOCC2)cc1Br)c1cc(Cl)ccc1Cl 28.2 µM [inhibitor, single point]
O=C(Nc1ccc(F)cc1)C1CCCN(S(=O)(=O)c2ccc3[nH]c(=O)ccc3c2)C1 (stereo unspecified) 39.8 µM [fluorescent, side channel, single point]
CCOc1ccc(NC2=CC(=O)CCC2)cc1 15.8 µM [inhibitor, partial curve]
O=C(CSc1nc2ccccc2[nH]1)N1CCN(C(=O)c2ccco2)CC1 5.01 µM [inhibitor, single point]
COC(=O)/C(=C\Nc1ccc(Cl)cc1Cl)NC(=O)c1ccccc1 35.5 µM [quencher, side channel, single point]
COc1ccc2c(c1)N(C)/C(=C1/SC(=S)N(NC(C)=O)C1=O)S2 35.5 µM [quencher, side channel, single point]
O=c1c(-c2ccccc2)c[nH]n1-c1cccc([N+](=O)[O-])c1 14.1 µM [quencher, side channel, partial curve]
Cc1ccc(NC(=O)/C=C/c2ccc([N+](=O)[O-])s2)c(C)c1 14.1 µM [quencher, side channel, partial curve]
CN(N=Nc1cccc([N+](=O)[O-])c1)c1cccc([N+](=O)[O-])c1 28.2 µM [quencher, side channel, single point]
COc1cccc(C(=O)N2c3cc(C)ccc3OCC2C(C)(C)C)c1 (stereo unspecified) 1.12 µM [inhibitor, full curve]
O=c1c(-c2ccc(F)cc2)nc2cnc(Oc3cccc(Cl)c3)nc2n1C1CC1 10 µM [fluorescent, side channel, partial curve]
Cc1cccc(C)c1OC(=O)CN1C(=O)c2ccccc2C1=O 25.1 µM [fluorescent, side channel, single point]
CCOC(=O)/C(=C/C=C1\Sc2cc(C)c(C)cc2N1CC)C(C)=O 14.1 µM [fluorescent, side channel, partial curve]
Nc1nc2ccccc2[nH]1 20 µM [inhibitor, single point]
COc1cccc(NC(=O)/C=C/c2ccccc2[N+](=O)[O-])c1 25.1 µM [quencher, partial curve]
O=C(c1oc2ccccc2c1N1CCCCC1)N1CCCCC1 2.82 µM [inhibitor, full curve, poor fit]
CCOc1cc(/C=N/NC(=O)c2cccnc2)ccc1OCC(=O)N(C)C 39.8 µM [inhibitor, single point]
Cc1ccc(OCC(=O)NNC(=O)CCC(=O)Nc2ccc(C)cc2C)cc1 35.5 µM [fluorescent, side channel, single point]
CC(=O)OCCNc1cc(N2CCN(C)CC2)c2noc3c2c1C(=O)c1ccccc1-3 28.2 µM [fluorescent, side channel, single point]
CNc1ncnc2sc(-c3ccccc3)cc12 31.6 µM [quencher, side channel, single point]
COc1ccc(NC(=O)c2cc([N+](=O)[O-])ccc2O)cc1 20 µM [quencher, side channel, partial curve]
Fc1cc(F)c2nc(Nc3nc4c(F)cccc4s3)sc2c1 8.91 µM [quencher, side channel, full curve]
